This is one part of the list.
Columns and labels:
Assay in all cases: glycan array binding signal (z-score within array); higher = stronger binding
Conditions in all cases: glycan notation: IUPAC condensed, linker removed
[1] = biological target: Man(a1-3)[Man(a1-6)]Man(b1-4)GlcNAc(b1-4)GlcNAc
Outline: (§1)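 Arrays were curated from the Consortium for Functional Glycomics database, 3228 in total, and kept only where the protein sequence was available. Binding is expressed as a within-array Z-score. This score was averaged across arrays of the same protein sequence at different concentrations or buffers and across linkers, and negative values can be read as non-binding.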

Man(a1-6)Man = biological target: Man(a1-6)Man
Outline: as §1

Man(b1-4)GlcNAc = biological target: Man(b1-4)GlcNAc
Outline: as §1

Neu5Ac(a2-3)Gal = biological target: Neu5Ac(a2-3)Gal
Outline: as §1

[2] = biological target: Neu5Ac(a2-3)Gal(b1-3)GalNAc
Outline: as §1

[3] = biological target: Neu5Ac(a2-3)Gal(b1-3)GalNAc(b1-3)Gal(a1-4)Gal(b1-4)Glc
Outline: as §1

[4] = biological target: Neu5Ac(a2-3)Gal(b1-3)GalNAc(b1-3)Gal(b1-4)GlcNAc
Outline: as §1

[5] = biological target: Neu5Ac(a2-3)Gal(b1-3)GalNAc(b1-4)[Neu5Ac(a2-3)]Gal(b1-4)Glc
Outline: as §1

[6] = biological target: Neu5Ac(a2-3)Gal(b1-3)GalNAc6S
Outline: as §1

[7] = biological target: Neu5Ac(a2-3)Gal(b1-3)GlcNAc
Outline: as §1

[8] = biological target: Neu5Ac(a2-3)Gal(b1-3)GlcNAc(b1-3)Gal(b1-3)GlcNAc
Outline: as §1

[9] = biological target: Neu5Ac(a2-3)Gal(b1-3)GlcNAc6S
Outline: as §1

[10] = biological target: Neu5Ac(a2-3)Gal(b1-3)[Fuc(a1-4)]GlcNAc
Outline: as §1

[11] = biological target: Neu5Ac(a2-3)Gal(b1-3)[Fuc(a1-4)]GlcNAc(b1-3)Gal(b1-3)[Fuc(a1-4)]GlcNAc
Outline: as §1

[12] = biological target: Neu5Ac(a2-3)Gal(b1-3)[Fuc(a1-4)]GlcNAc(b1-3)Gal(b1-4)[Fuc(a1-3)]GlcNAc
Outline: as §1

[13] = biological target: Neu5Ac(a2-3)Gal(b1-3)[Neu5Ac(a2-3)Gal(b1-4)]GlcNAc
Outline: as §1

[14] = biological target: Neu5Ac(a2-3)Gal(b1-3)[Neu5Ac(a2-6)]GalNAc
Outline: as §1

Neu5Ac(a2-3)Gal(b1-4)Glc = biological target: Neu5Ac(a2-3)Gal(b1-4)Glc
Outline: as §1

[15] = biological target: Neu5Ac(a2-3)Gal(b1-4)GlcNAc
Outline: as §1

[16] = biological target: Neu5Ac(a2-3)Gal(b1-4)GlcNAc(b1-2)Man(a1-3)[GlcNAc(b1-2)Man(b1-4)GlcNAc(b1-2)Man(a1-6)]Man(b1-4)GlcNAc(b1-4)GlcNAc
Outline: as §1

[17] = biological target: Neu5Ac(a2-3)Gal(b1-4)GlcNAc(b1-2)Man(a1-3)[Neu5Ac(a2-6)Gal(b1-4)GlcNAc(b1-2)Man(a1-6)]Man(b1-4)GlcNAc(b1-4)GlcNAc
Outline: as §1

[18] = biological target: Neu5Ac(a2-3)Gal(b1-4)GlcNAc(b1-3)Gal(b1-3)GlcNAc
Outline: as §1

[19] = biological target: Neu5Ac(a2-3)Gal(b1-4)GlcNAc(b1-3)Gal(b1-4)GlcNAc
Outline: as §1

[20] = biological target: Neu5Ac(a2-3)Gal(b1-4)GlcNAc(b1-3)Gal(b1-4)GlcNAc(b1-3)Gal(b1-4)GlcNAc
Outline: as §1

[21] = biological target: Neu5Ac(a2-3)Gal(b1-4)GlcNAc(b1-3)Gal(b1-4)[Fuc(a1-3)]GlcNAc
Outline: as §1

[22] = biological target: Neu5Ac(a2-3)Gal(b1-4)GlcNAc(b1-3)GalNAc
Outline: as §1

[23] = biological target: Neu5Ac(a2-3)Gal(b1-4)GlcNAc(b1-6)[Gal(b1-3)]GalNAc
Outline: as §1

[24] = biological target: Neu5Ac(a2-3)Gal(b1-4)GlcNAc(b1-6)[Neu5Ac(a2-3)Gal(b1-3)]GalNAc
Outline: as §1

[25] = biological target: Neu5Ac(a2-3)Gal(b1-4)GlcNAc6S
Outline: as §1

[26] = biological target: Neu5Ac(a2-3)Gal(b1-4)[Fuc(a1-3)]GlcNAc
Outline: as §1

[27] = biological target: Neu5Ac(a2-3)Gal(b1-4)[Fuc(a1-3)]GlcNAc(b1-3)Gal
Outline: as §1

[28] = biological target: Neu5Ac(a2-3)Gal(b1-4)[Fuc(a1-3)]GlcNAc(b1-3)Gal(b1-4)GlcNAc
Outline: as §1

[29] = biological target: Neu5Ac(a2-3)Gal(b1-4)[Fuc(a1-3)]GlcNAc(b1-3)Gal(b1-4)[Fuc(a1-3)]GlcNAc(b1-3)Gal(b1-4)[Fuc(a1-3)]GlcNAc
Outline: as §1

[30] = biological target: Neu5Ac(a2-3)Gal(b1-4)[Fuc(a1-3)]GlcNAc(b1-3)GalNAc
Outline: as §1

[31] = biological target: Neu5Ac(a2-3)Gal(b1-4)[Fuc(a1-3)]GlcNAc(b1-6)[Gal(b1-3)]GalNAc
Outline: as §1

[32] = biological target: Neu5Ac(a2-3)Gal(b1-4)[Fuc(a1-3)]GlcNAc(b1-6)[Neu5Ac(a2-3)Gal(b1-3)]GalNAc
Outline: as §1

[33] = biological target: Neu5Ac(a2-3)Gal(b1-4)[Fuc(a1-3)]GlcNAc6S
Outline: as §1

[34] = biological target: Neu5Ac(a2-3)Gal6S(b1-4)GlcNAc
Outline: as §1

[35] = biological target: Neu5Ac(a2-3)Gal6S(b1-4)[Fuc(a1-3)]GlcNAc
Outline: as §1

Neu5Ac(a2-3)GalNAc = biological target: Neu5Ac(a2-3)GalNAc
Outline: as §1

[36] = biological target: Neu5Ac(a2-3)GalNAc(b1-4)GlcNAc
Outline: as §1

[37] = biological target: Neu5Ac(a2-3)[GalNAc(b1-4)]Gal(b1-4)Glc
Outline: as §1

[38] = biological target: Neu5Ac(a2-3)[GalNAc(b1-4)]Gal(b1-4)GlcNAc
Outline: as §1

B1: CCL2 (Coprinopsis cinerea), B3GA02 (protein)
chain: MDSPAVTLSAGNYIIYNRVLSPRGEKLALTYPGRQRTPVTVSPLDGSSEQAWILRSYDSNSNTWTISPVGSPNSQIGWGAGNVPVVLPPNNYVWTLTLTSGGYNIQDGKRTVSWSLNNATAGEEVSIGADATFSGRWVIEKV
[1]
  glycan array binding signal (z-score): -0.239
Man(a1-6)Man
  glycan array binding signal (z-score): -0.296
Man(b1-4)GlcNAc
  glycan array binding signal (z-score): -0.3
Neu5Ac(a2-3)Gal
  glycan array binding signal (z-score): -0.224
[2]
  glycan array binding signal (z-score): -0.166
[3]
  glycan array binding signal (z-score): -0.278
[4]
  glycan array binding signal (z-score): -0.296
[5]
  glycan array binding signal (z-score): -0.249
[6]
  glycan array binding signal (z-score): -0.233
[7]
  glycan array binding signal (z-score): -0.282
[8]
  glycan array binding signal (z-score): -0.201
[9]
  glycan array binding signal (z-score): -0.282
[10]
  glycan array binding signal (z-score): -0.283
[11]
  glycan array binding signal (z-score): 0.068
[12]
  glycan array binding signal (z-score): -0.104
[13]
  glycan array binding signal (z-score): -0.259
[14]
  glycan array binding signal (z-score): 0.849
Neu5Ac(a2-3)Gal(b1-4)Glc
  glycan array binding signal (z-score): -0.28
[15]
  glycan array binding signal (z-score): -0.279
[16]
  glycan array binding signal (z-score): -0.264
[17]
  glycan array binding signal (z-score): -0.281
[18]
  glycan array binding signal (z-score): -0.256
[19]
  glycan array binding signal (z-score): -0.284
[20]
  glycan array binding signal (z-score): -0.269
[21]
  glycan array binding signal (z-score): -0.272
[22]
  glycan array binding signal (z-score): -0.227
[23]
  glycan array binding signal (z-score): -0.281
[24]
  glycan array binding signal (z-score): -0.27
[25]
  glycan array binding signal (z-score): -0.265
[26]
  glycan array binding signal (z-score): 3.74
[27]
  glycan array binding signal (z-score): 5.39
[28]
  glycan array binding signal (z-score): 4.93
[29]
  glycan array binding signal (z-score): 4.19
[30]
  glycan array binding signal (z-score): 0.012
[31]
  glycan array binding signal (z-score): 4.04
[32]
  glycan array binding signal (z-score): 4.17
[33]
  glycan array binding signal (z-score): 4.45
[34]
  glycan array binding signal (z-score): 4.88
[35]
  glycan array binding signal (z-score): 4.18
Neu5Ac(a2-3)GalNAc
  glycan array binding signal (z-score): -0.29
[36]
  glycan array binding signal (z-score): -0.294
[37]
  glycan array binding signal (z-score): -0.269
[38]
  glycan array binding signal (z-score): -0.278
